Measured values taken from patent publication US20220249416A1, “SYNERGISTIC COMBINATIONS OF SYNTHETIC LYSINE ANALOGS, DERIVATIVES, MIMETICS, OR PRODRUGS AND PHARMACEUTICAL AGENTS FOR ENHANCED EFFICACY” (priority 2019, published 2022).

Tested on: HSV-1 Strain 17+
Experiment: Effect of 2% tranexamic acid on HSV transcription (RT-qPCR) in rabbit skin cells
Format: cell-based, Herpes Simplex Virus Type 1

SMILES: NC[C@H]1CC[C@H](C(=O)O)CC1 [tranexamic acid]
- early gene transcription (ICP8, thymidine kinase) (MOI 0.5 and 0.05): does not cause a significant decrease
- reduction of late gene expression (gC, VP16) (both high and low MOI): up to 8 fold
